Reference: patent publication US4362664A, “Vinblastine oxazolidinedione disulfides and related compounds” (priority 1980, dated 1982)

What was measured:
Type in all cases: in vivo
P388/V = test: transplanted tumor in mice: P388/V; conditions: 2.5 mg/kg, every fourth day (three doses), * = below 30, not statistically significant
Protocol: (§1) The bases of this invention and their salts preparable by the processes disclosed herein are active also in vivo against some but not all transplanted tumors in mice.
(§2) The following table--Table 2--gives the results of this experiment in which mice bearing the transplanted tumor were treated with a compound of this invention. In the table, column 1 gives the name of the compound; column 2, the name of the tumor; column 3, the dosage given; and column 4, the percent inhibition of tumor growth (I) or prolongation of life (PL). The following dosage regimen was employed: every fourth day (three doses) starting on the first day after inoculation.

6C3 HED lymphosarcoma = test: transplanted tumor in mice: 6C3 HED lymphosarcoma; conditions: 2.5 mg/kg, every fourth day (three doses) from day 1 after inoculation, * = below 30, not statistically significant
P1534(J) = test: transplanted tumor in mice: P1534(J) leukemia; conditions: 2.5 mg/kg, every fourth day (three doses), * = below 30, not statistically significant
P388/J = test: transplanted tumor in mice: P388/J leukemia; conditions: 2.5 mg/kg, every fourth day (three doses), * = below 30, not statistically significant
Protocol: as §1, §2
In the above Table, 6C3 HED is a lymphosarcoma and P1534(J) and […]

Structure (SMILES) | Percent Prolongation of life (PL) (P388/V) [%] | Percent Inhibition of tumor growth (I) (6C3 HED lymphosarcoma) [%] | Percent Inhibition of tumor growth (I) (P1534(J)) [%] | Percent Prolongation of life (PL) (P388/J) [%]
CC[C@]1(O)C[C@H]2CN(CCc3c([nH]c4ccccc34)[C@@](C(=O)OC)(c3cc4c(cc3OC)N(C)[C@H]3[C@]5(OC(=O)N(CCSSCCNC(=O)OC)C5=O)[C@H](OC(C)=O)[C@]5(CC)C=CCN6CC[C@]43[C@@H]65)C2)C1 [Example 1, Vinblastine 3"-(β-[β-(methoxycarbonylamino)ethyldithio]ethyl)-3-spiro-5"-oxazolidine-2",4"-dione] | 38 | 12 | 16 | –
CC[C@]1(O)C[C@H]2CN(CCc3c([nH]c4ccccc34)[C@@](C(=O)OC)(c3cc4c(cc3OC)N(C)[C@H]3[C@]5(OC(=O)N(CCSSCCN6C(=O)O[C@]7(C6=O)[C@H](OC(C)=O)[C@]6(CC)C=CCN8CC[C@@]9(c%10cc([C@@]%11(C(=O)OC)C[C@@H]%12CN(CCc%13c%11[nH]c%11ccccc%13%11)C[C@](O)(CC)C%12)c(OC)cc%10N(C)[C@@H]79)[C@@H]86)C5=O)[C@H](OC(C)=O)[C@]5(CC)C=CCN6CC[C@]43[C@@H]65)C2)C1 [Example 3, Bis-[β-(vinblastine-3-spiro-5"-oxazolidine-2",4"-dione-3"-yl)ethyl]disulfide] | – | 46 | 16 | 18
CC[C@]1(O)C[C@H]2CN(CCc3c([nH]c4ccccc34)[C@@](C(=O)OC)(c3cc4c(cc3OC)N(C)[C@H]3[C@]5(OC(=O)N(CCS)C5=O)[C@H](OC(C)=O)[C@]5(CC)C=CCN6CC[C@]43[C@@H]65)C2)C1 [Example 2, Vinblastine 3"-(β-thioethyl)-3-spiro-5"-oxazolidine-2",4"-dione] | 22 | 14 | 14 | –
